Data on four molecules can be found in patent US20170137512A1 (Ablynx, published 2017).

B1: A019400072 (bispecific antibody)
chain: DVQLVESGGGVVQPGGSLRLSCSASGLLFSRNSAGWYRQAPGKQREFVARIRQGGSINYADSVKGRFTISRDNSKNTVYLQMNSLRPEDTALYYCSSWREGFYEYWGQGTLVTVSSGGGGSGGGGSGGGGSGGGGSGGGGSGGGGSGGGGSEVQLVESGGGVVQPGGSLRLSCSASGLLFSRNSAGWYRQAPGKQREFVARIRQGGSINYADSVKGRFTISRDNSKNTVYLQMNSLRPEDTALYYCSSWREGFYEYWGQGTLVTVSSGGGGSGGGGSGGGGSGGGGSGGGGSGGGGSGGGGS[about 120 residues omitted]
B2: A019400071 (bispecific antibody)
chain: DVQLVESGGGVVQPGGSLRLSCSASGLLFSRNSAGWYRQAPGKQREFVARIRQGGSINYADSVKGRFTISRDNSKNTVYLQMNSLRPEDTALYYCSGWRTGFYEYWGQGTLVTVSSGGGGSGGGGSGGGGSGGGGSGGGGSGGGGSGGGGSEVQLVESGGGVVQPGGSLRLSCSASGLLFSRNSAGWYRQAPGKQREFVARIRQGGSINYADSVKGRFTISRDNSKNTVYLQMNSLRPEDTALYYCSGWRTGFYEYWGQGTLVTVSSGGGGSGGGGSGGGGSGGGGSGGGGSGGGGSGGGGS[about 120 residues omitted]
B3: A019400074 (bispecific antibody)
chain: DVQLVESGGGVVQPGGSLRLSCSASGLLFSRNSAGWYRQAPGKQREFVARIRAGGSINYADSVKGRFTISRDNSKNTVYLQMNSLRPEDTALYYCSSWREGFYEYWGQGTLVTVSSGGGGSGGGGSGGGGSGGGGSGGGGSGGGGSGGGGSEVQLVESGGGVVQPGGSLRLSCSASGLLFSRNSAGWYRQAPGKQREFVARIRAGGSINYADSVKGRFTISRDNSKNTVYLQMNSLRPEDTALYYCSSWREGFYEYWGQGTLVTVSSGGGGSGGGGSGGGGSGGGGSGGGGSGGGGSGGGGS[about 120 residues omitted]
B4: A019400073 (bispecific antibody)
chain: DVQLVESGGGVVQPGGSLRLSCSASGLLFSRNSAGWYRQAPGKQREFVARIRAGGSINYADSVKGRFTISRDNSKNTVYLQMNSLRPEDTALYYCSGWRTGFYEYWGQGTLVTVSSGGGGSGGGGSGGGGSGGGGSGGGGSGGGGSGGGGSEVQLVESGGGVVQPGGSLRLSCSASGLLFSRNSAGWYRQAPGKQREFVARIRAGGSINYADSVKGRFTISRDNSKNTVYLQMNSLRPEDTALYYCSGWRTGFYEYWGQGTLVTVSSGGGGSGGGGSGGGGSGGGGSGGGGSGGGGSGGGGS[about 120 residues omitted]

This test has as its target human Kv1.3 (Homo sapiens, UniProt P22001). In words: cell-based or functional assay.
Chain of UniProt P22001 (P22001 whole entry): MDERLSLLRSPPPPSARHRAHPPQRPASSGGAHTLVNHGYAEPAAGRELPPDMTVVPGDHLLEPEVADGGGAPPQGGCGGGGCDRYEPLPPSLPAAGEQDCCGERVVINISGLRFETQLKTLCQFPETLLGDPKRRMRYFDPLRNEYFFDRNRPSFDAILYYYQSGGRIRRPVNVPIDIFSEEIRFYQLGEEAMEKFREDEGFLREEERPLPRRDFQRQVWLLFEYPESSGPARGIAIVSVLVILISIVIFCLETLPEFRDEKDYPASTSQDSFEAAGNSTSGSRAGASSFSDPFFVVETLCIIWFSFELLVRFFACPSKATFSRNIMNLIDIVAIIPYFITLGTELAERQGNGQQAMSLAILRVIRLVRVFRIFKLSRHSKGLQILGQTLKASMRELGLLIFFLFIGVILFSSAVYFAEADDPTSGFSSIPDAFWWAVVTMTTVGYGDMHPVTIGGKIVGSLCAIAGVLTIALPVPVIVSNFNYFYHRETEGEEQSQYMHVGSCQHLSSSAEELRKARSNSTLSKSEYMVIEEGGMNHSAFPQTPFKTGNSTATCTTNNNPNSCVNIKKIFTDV
With B1, the “IC50, IFNγ production, T-cell activation assay” value was found to be 0.32 nM and the “IC50, IFNγ production, T-cell activation assay, with 2.5 µM HSA” value (from here on “IC50, IFNγ production … with 2.5 µM HSA”) was 0.67 nM.

For the molecule B2, the “IC50, IFNγ production, T-cell activation assay” value worked out at 0.096 nM and the “IC50, IFNγ production … with 2.5 µM HSA” value came to 0.41 nM.

Turning to B3, the “IC50, IFNγ production, T-cell activation assay” value was determined as 0.16 nM and the “IC50, IFNγ production … with 2.5 µM HSA” value worked out at 0.57 nM.

For the molecule B4, the “IC50, IFNγ production, T-cell activation assay” value came to 0.14 nM and the “IC50, IFNγ production … with 2.5 µM HSA” value was found to be 0.46 nM.
